Where two headings read alike, the source gives them in different places.
Target: Recombinant heterodimeric HCV NS3/NS4A protease (strain 1a) (Hepatitis C virus genotype 1a, UniProt P27958)
Assay: Spectrophotometric assay for HCV protease inhibitory activity
Assay type: biochemical
Description: The present invention relates to novel HCV protease inhibitors. This utility can be manifested in their ability to inhibit the HCV NS2/NS4a serine protease.
Assay for HCV Protease Inhibitory Activity:
Spectrophotometric Assay: Spectrophotometric assay for the HCV serine protease can be performed on the inventive compounds by following the procedure described by R. Zhang et al, Analytical Biochemistry, 270 (1999) 268-275, the disclosure of which is incorporated herein by reference. The assay based on the proteolysis of chromogenic ester substrates is suitable for the continuous monitoring of HCV NS3 protease activity. The substrates are derived from the P side of the NS5A-NS5B junction sequence (Ac-DTEDVVX(Nva), where X=A or P) whose C-terminal carboxyl groups are esterified with one of four different chromophoric alcohols (3- or 4-nitrophenol, 7-hydroxy-4-methyl-coumarin, or 4-phenylazophenol). Illustrated below are the synthesis, characterization and application of these novel spectrophotometric ester substrates to high throughput screening and detailed kinetic evaluation of HCV NS3 protease inhibitors. Materials and Methods: Materials: Chemical reagents for assay related buffers are obtained from Sigma Chemical Company (St. Louis, Mo.). Reagents for peptide synthesis were from Aldrich Chemicals, Novabiochem (San Diego, Calif.), Applied Biosystems (Foster City, Calif.) and Perseptive Biosystems (Framingham, Mass.). Peptides are synthesized manually or on an automated ABI model 431A synthesizer (from Applied Biosystems). UV/VIS Spectrometer model LAMBDA 12 was from Perkin Elmer (Norwalk, Conn.) and 96-well UV plates were obtained from Corning (Corning, N.Y.). The prewarming block can be from USA Scientific (Ocala, Fla.) and the 96-well plate vortexer is from Labline Instruments (Melrose Park, Ill.). A Spectramax Plus microtiter plate reader with monochrometer is obtained from Molecular Devices (Sunnyvale, Calif.). […] Protein concentrations are determined by the Biorad dye method using recombinant HCV protease standards previously quantified by amino acid analysis. Prior to assay initiation, the enzyme storage buffer (50 mM sodium phosphate pH 8.0, 300 mM NaCl, 10% glycerol, 0.05% lauryl maltoside and 10 mM DTT) is exchanged for the assay buffer (25 mM MOPS pH 6.5, 300 mM NaCl, 10% glycerol, 0.05% lauryl maltoside, 5 μM EDTA and 5 μM DTT) utilizing a Biorad Bio-Spin P-6 prepacked column. Substrate Synthesis and Purification: The synthesis of the substrates is done as reported by R. Zhang et al, (ibid.) and is initiated by anchoring Fmoc-Nva-OH to 2-chlorotrityl chloride resin using a standard protocol (K. Barlos et al, Int. J. Pept. Protein Res., 37 (1991), 513-520). The peptides are subsequently assembled, using Fmoc chemistry, either manually or on an automatic ABI model 431 peptide synthesizer. […] The combined filtrate and DCM wash is evaporated azeotropically (or repeatedly extracted by aqueous Na2CO3 solution) to remove the acid used in cleavage. The DCM phase is dried over Na2SO4 and evaporated.
The ester substrates are assembled using standard acid-alcohol coupling procedures (K. Holmber et al, Acta Chem. Scand., B33 (1979) 410-412). Peptide fragments are dissolved in anhydrous pyridine (30-60 mg/ml) to which 10 molar equivalents of chromophore and a catalytic amount (0.1 eq.) of para-toluenesulfonic acid (pTSA) were added. Dicyclohexylcarbodiimide (DCC, 3 eq.) is added to initiate the coupling reactions. Product formation is monitored by HPLC and can be found to be complete following 12-72 hour reaction at room temperature. Pyridine solvent is evaporated under vacuum and further removed by azeotropic evaporation with toluene.

[1] = HCV serine protease inhibitory activity ranges, read-out: Ki* Range
[2] = HCV NS3/NS4A protease, chromogenic ester substrate, 30° C., pH 6.5, read-out: Ki*

Compound	Ki [1] [nM]	Ki [2] [nM]
CN(CC(F)(F)F)S(=O)(=O)CC1(NC(=O)N[C@H](C(=O)N2C[C@H]3[C@@H]([C@H]2C(=O)N[C@@H](CC2CC2)C(=O)C(=O)NC2CC2)C3(C)C)C2(C)CCCCC2)CCCCC1 [compound 1323]	< 75	–
CC1([C@H](NC(=O)NC2(CS(=O)(=O)N3CCC3)CCCCC2)C(=O)N2C[C@H]3[C@@H]([C@H]2C(=O)N[C@@H](CC2CC2)C(=O)C(=O)NC2CC2)C3(C)C)CCCCC1 [compound 1350]	< 75	–
C[C@H](C1(NC(=O)N[C@H](C(=O)N2C[C@H]3[C@@H]([C@H]2C(=O)N[C@@H](CCC2CC2)C(=O)C(=O)NC2CC2)C3(C)C)C(C)(C)C)CCCCC1)S(=O)(=O)N(C)C [compound 1398]	< 75	–
C#CCC[C@H](NC(=O)[C@@H]1[C@@H]2[C@H](CN1C(=O)[C@@H](NC(=O)NC1(CS(=O)(=O)N(C)C)CCCCC1)C(C)(C)C)C2(C)C)C(=O)C(=O)NC1CC1 [compound 1234]	< 75	–
CN(CC(F)(F)F)S(=O)(=O)CC1(NC(=O)N[C@H](C(=O)N2C[C@H]3[C@@H]([C@H]2C(=O)N[C@@H](CC2CC2)C(=O)C(=O)NC2CC2)C3(C)C)C(C)(C)C)CCCCC1 [compound 1318]	< 75	–
CN(C(C)(C)CF)S(=O)(=O)CC1(NC(=O)N[C@H](C(=O)N2C[C@H]3[C@@H]([C@H]2C(=O)N[C@@H](CC2CC2)C(=O)C(=O)NC2CC2)C3(C)C)C2(C)CCCCC2)CCCCC1 [compound 1369]	< 75	–
CCC[C@H](NC(=O)[C@@H]1[C@@H]2[C@H](CN1C(=O)[C@@H](NC(=O)NC1(CS(=O)(=O)N(C)c3ccccn3)CCCCC1)C(C)(C)C)C2(C)C)C(=O)C(=O)NC1CC1 [compound 1392]	< 75	–
CCC[C@H](NC(=O)[C@@H]1[C@@H]2[C@H](CN1C(=O)[C@@H](NC(=O)NC1(CS(=O)(=O)N(C)C3CC3)CCCCC1)C(C)(C)C)C2(C)C)C(=O)C(=O)NC1CC1 [compound 1263]	< 75	8
CCN(C(C)(C)C)S(=O)(=O)CC1(NC(=O)N[C@H](C(=O)N2C[C@H]3[C@@H]([C@H]2C(=O)N[C@@H](CC2CC2)C(=O)C(=O)NC2CC2)C3(C)C)C(C)(C)C)CCCCC1 [compound 1316]	< 75	–
CCN(CC)S(=O)(=O)CC1(NC(=O)N[C@H](C(=O)N2C[C@H]3[C@@H]([C@H]2C(=O)N[C@@H](CC2CC2)C(=O)C(=O)NC2CC2)C3(C)C)C(C)(C)C)CCCCC1 [compound 1259]	< 75	–
CCCC[C@H](NC(=O)[C@@H]1[C@@H]2[C@H](CN1C(=O)[C@@H](NC(=O)NC1([C@H]3CCN(C)S3(=O)=O)CCCCC1)C(C)(C)C)C2(C)C)C(=O)C(=O)NC1CC1 [compound 1204]	< 75	–
CCN(C(C)(C)C)S(=O)(=O)CC1(NC(=O)N[C@H](C(=O)N2C[C@H]3[C@@H]([C@H]2C(=O)N[C@@H](CCC2CC2)C(=O)C(=O)NC2CC2)C3(C)C)C(C)(C)C)CCCCC1 [compound 1314]	< 75	–
CCCC[C@H](NC(=O)[C@@H]1[C@@H]2[C@H](CN1C(=O)[C@@H](NC(=O)NC1([C@@H](C)S(=O)(=O)N(C)C)CCCCC1)C(C)(C)C)C2(C)C)C(=O)C(=O)NC1CC1 [compound 1397]	< 75	2
CCN(CC)S(=O)(=O)CC1(NC(=O)N[C@H](C(=O)N2C[C@H]3[C@@H]([C@H]2C(=O)N[C@@H](CC2CC2)C(=O)C(=O)NC2CC2)C3(C)C)C2CCCCC2)CCCCC1 [compound 1336]	< 75	–
C[C@H](C1(NC(=O)N[C@H](C(=O)N2C[C@H]3[C@@H]([C@H]2C(=O)N[C@@H](CC2CC2)C(=O)C(=O)NC2CC2)C3(C)C)C(C)(C)C)CCCCC1)S(=O)(=O)N(C)C1CC1 [compound 1418]	< 75	–
CCCC[C@H](NC(=O)[C@@H]1[C@@H]2[C@H](CN1C(=O)[C@@H](NC(=O)NC1(CS(=O)(=O)N(CC)C3CC3)CCCCC1)C(C)(C)C)C2(C)C)C(=O)C(=O)NC1CC1 [compound 1281]	< 75	–

Compound	Ki [1] [nM]	Ki [2] [nM]
CCC[C@H](NC(=O)[C@@H]1[C@@H]2[C@H](CN1C(=O)[C@@H](NC(=O)NC1(CS(=O)(=O)N(C)OC)CCCCC1)C1(C)CCCCC1)C2(C)C)C(=O)C(=O)NC1CC1 [compound 1233]	< 75	–
CCN(C1CC1)S(=O)(=O)CC1(NC(=O)N[C@H](C(=O)N2C[C@H]3[C@@H]([C@H]2C(=O)N[C@@H](CCC2CC2)C(=O)C(=O)NC2CC2)C3(C)C)C(C)(C)C)CCCCC1 [compound 1351]	< 75	–
CC(C)N(C(C)C)S(=O)(=O)CC1(NC(=O)N[C@H](C(=O)N2C[C@H]3[C@@H]([C@H]2C(=O)N[C@@H](CCC2CC2)C(=O)C(=O)NC2CC2)C3(C)C)C2(C)CCCCC2)CCCCC1 [compound 1354]	< 75	–
CN(C1CCC1)S(=O)(=O)CC1(NC(=O)N[C@H](C(=O)N2C[C@H]3[C@@H]([C@H]2C(=O)N[C@@H](CCC2CC2)C(=O)C(=O)NC2CC2)C3(C)C)C(C)(C)C)CCCCC1 [compound 1385]	< 75	–
CCCC[C@H](NC(=O)[C@@H]1[C@@H]2[C@H](CN1C(=O)[C@@H](NC(=O)NC1(CS(=O)(=O)N(C)C(C)C)CCCCC1)C(C)(C)C)C2(C)C)C(=O)C(=O)NC1CC1 [compound 1248]	< 75	–
CN(C(C)(C)C)S(=O)(=O)CC1(NC(=O)N[C@H](C(=O)N2C[C@H]3[C@@H]([C@H]2C(=O)N[C@@H](CCC2CC2)C(=O)C(=O)NC2CC2)C3(C)C)C(C)(C)C)CCCCC1 [compound 1273]	< 75	–
CCC[C@H](NC(=O)[C@@H]1[C@@H]2[C@H](CN1C(=O)[C@@H](NC(=O)NC1(CS(=O)(=O)N(C)C)CCCCC1)C(C)(C)C)C2(C)C)C(=O)C(=O)NC1CC1 [compound 1252]	< 75	5
CN(C(C)(C)C(F)(F)F)S(=O)(=O)CC1(NC(=O)N[C@H](C(=O)N2C[C@H]3[C@@H]([C@H]2C(=O)N[C@@H](CC2CC2)C(=O)C(=O)NC2CC2)C3(C)C)C2(C)CCCCC2)CCCCC1 [compound 1365]	< 75	–
CN(C)S(=O)(=O)CC1(NC(=O)N[C@H](C(=O)N2C[C@H]3[C@@H]([C@H]2C(=O)N[C@@H](CC2CC2)C(=O)C(=O)NC2CC2)C3(C)C)C2CCCCC2)CCCCC1 [compound 1242]	< 75	–
CCC[C@H](NC(=O)[C@@H]1[C@@H]2[C@H](CN1C(=O)[C@@H](NC(=O)NC1(CS(=O)(=O)N3CCOCC3)CCCCC1)C(C)(C)C)C2(C)C)C(=O)C(=O)NC1CC1 [compound 1386]	< 75	–
CCC[C@H](NC(=O)[C@@H]1[C@@H]2[C@H](CN1C(=O)[C@@H](NC(=O)NC1(CS(=O)(=O)N(C)CC3CC3)CCCCC1)C(C)(C)C)C2(C)C)C(=O)C(=O)NC1CC1 [compound 1280]	< 75	–
CN(C1CC1)S(=O)(=O)CC1(NC(=O)N[C@H](C(=O)N2C[C@H]3[C@@H]([C@H]2C(=O)N[C@@H](CCC2CC2)C(=O)C(=O)NC2CC2)C3(C)C)C(C)(C)C)CCCCC1 [compound 1262]	< 75	6
CCC[C@H](NC(=O)[C@@H]1[C@@H]2[C@H](CN1C(=O)[C@@H](NC(=O)NC1(CS(=O)(=O)N(CC)CC)CCCCC1)C(C)(C)C)C2(C)C)C(=O)C(=O)NC1CC1 [compound 1258]	< 75	8
CN(C)S(=O)(=O)CC1(NC(=O)N[C@H](C(=O)N2C[C@H]3[C@@H]([C@H]2C(=O)N[C@@H](CC2CC2)C(=O)C(=O)NC2CC2)C3(C)C)C2(C)CCCCC2)CCCCC1 [compound 1237]	< 75	–
CNS(=O)(=O)CC1(NC(=O)N[C@H](C(=O)N2C[C@H]3[C@@H]([C@H]2C(=O)N[C@@H](CCC2CC2)C(=O)C(=O)NC2CC2)C3(C)C)C(C)(C)C)CCCCC1 [compound 1246]	< 75	–
CN(CC1CC1)S(=O)(=O)CC1(NC(=O)N[C@H](C(=O)N2C[C@H]3[C@@H]([C@H]2C(=O)N[C@@H](CC2CC2)C(=O)C(=O)NC2CC2)C3(C)C)C(C)(C)C)CCCCC1 [compound 1357]	< 75	–
